This is an account of results in the RNAGym collection of RNA variant scans (doi:10.7554/elife.90254).

Sequences and labels used below:
B1: LINE1-mini (parent)
chain: GGCAGAGCUCAACACAGCGUGGCAAAGUGGCUGUGGCUAGACUGCC

The source gives no read counts; variants with many changes may rest on few reads.

Variants of B1 are the subject of this series. Description: self-cleavage, relative activity (ratio to wild type); higher = more cleavage; in vitro, sequencing; the parent is a self-cleaving ribozyme.
Take GGCAUAGCACAACACAGCGUGGCAAAGUGUCUGUGGCUAGACUGCC [G5U U9A G30U]: the self-cleavage amounted to 0.03.

Turning to GGCAUAGCUAAACAUAUCGUGGCAAAGUGGCUGUGGCUAGACUGCC [G5U C10A C15U G17U], the self-cleavage amounted to 0.09. Take GGCAGAGGUCAACACAGCAUUGCAAAGUGGCUGUGGCUAGACUGCC [C8G G19A G21U]: the self-cleavage stood at 0.01. With GGCAGAGCUAAACACCGCGUGGGACAGUGGCUGUGGCUAGACUGCC [C10A A16C C23G A25C] the figure was 0.01; with GGCAGAGCUAAACACAGCGUGGCCUAGAUGCUGUGUCUAGACUGCC [C10A A24C A25U U28A G29U G36U], 0.02. On to GGCAGAUCUUAACUUAGCGUGGCAAAGUGUCUGUGGCUAAACUGCC [G7U C10U A14U C15U G30U G40A], for which the self-cleavage is 0.39. Take GGCAGAGCUCGCCACAGCGUGGCAAAGUGGCUGUGCCUUGACUGCC [A11G A12C G36C A39U]: the self-cleavage is 0. In the case of GGCCGAGCCCAACACAGCGUGGAAAAGUGGCUGUGGCUAGACUGCG [A4C U9C C23A C46G], the self-cleavage amounted to 0.1. Turning to GGCAGCGCUCAGCACAGCGUGGCAAAGCGGCUGUGGCUAGACUGCC [A6C A12G U28C], the self-cleavage came to 0.04.

Turning to GCCAAAGCUCAACACACCUUGGCAAAGUGGCUGUGGCUAGACUGCC [G2C G5A G17C G19U], the self-cleavage came out at 0.02. For GGCAGAGCUCAACACAGCGUGGCAAAGUGGCUGUGUCCAUACUGCC [G36U U38C G40U], the self-cleavage stood at 0.12.

For the variant GGCGGAGCUCAAAACAGCGUGGCAAAGUAGCUGUGCCUAGGCUGAC [A4G C13A G29A G36C A41G C45A], the self-cleavage worked out at 0.19.

As to GGUAGAGCUCAACGCAGCGUGGCGAGGUGGCUGUGGCUAGACUGCC [C3U A14G A24G A26G], the self-cleavage is 0.46. Consider GGCAGAGGUCAAUACAGCGUGGCAAAGUGGCCGUGGCUAGACUUCC [C8G C13U U32C G44U], for which the self-cleavage was 0.04.

Regarding UGCAGAGAUCAACACAGCGUGGCAAAAUGGCUGUGGCUAGACUGCC [G1U C8A G27A], the self-cleavage turned out to be 0.04. Take GGCAGAGCUCAACACAGUGUGGCAAAGUGGCUGCGGCUAGUCUGCC [C18U U34C A41U]: the self-cleavage was determined as 0.19.

As for GGCAGAGCUCAACACAGCGUGGAACAGUGGCUGUGGCUAGACUGUC [C23A A25C C45U], the self-cleavage was 1.3.

GGCAGAGCUCAAUACAGCGUGGCAAAGUGGCUGUUGCUAAACUGCC [C13U G35U G40A]: the self-cleavage came out at 0.11. As for GGCAGAGCUCAACCCAGCGUCACAAAGUGGCUGUGGCUAGAAUCAC [A14C G21C G22A C42A G44C C45A], the self-cleavage came out at 0.03.

As for GGCAGAGCUCAACACAGCGUUGCAAAGUGGCUGUGGCAAUACUGCC [G21U U38A G40U], the self-cleavage was 0.04. The result for GGCAGAGCUAUACACUGCGUGGCAAAGUGGCUGCGUCUAGACUGCC [C10A A11U A16U U34C G36U] reads 0.01; that for GGCACAUCUCAACACAGCGUGGCAAAGUGGCUGUGGCUAGCCUGCC [G5C G7U A41C], 0.24. Take GGCAGAGCUCAACACAGCGUGGAAAAGUGGCUGGGGCUAGACUGCA [C23A U34G C46A]: the self-cleavage worked out at 0.09.

As for GGCAGAGCUCCACACAGUGUGGCACAGUGGUAGUGGCUCGACUGCA [A11C C18U A25C C31U U32A A39C C46A], the self-cleavage is 0. In the case of GGCAGAGCUCAACACAGCGGGGUAAAGUGGCUGUGUCUAGACUGCC [U20G C23U G36U], the self-cleavage is 0.04. GGCAGAGCUCAACACAGCGUGGCAAGGUGGCUGUGGCUAUACAGGC [A26G G40U U43A C45G]: the self-cleavage came out at 0.21. As to GGCAGAGUUCAACACAGCGUAGCAAAGUUGCUGUGGCUAGACUGCC [C8U G21A G29U], the self-cleavage is 1.11.

Regarding UGCAGAGCUCAACACGGCGUGGCUAAGUGGUUGUGGCUAAACUGCC [G1U A16G A24U C31U G40A], the self-cleavage turned out to be 0.01.

With GGCAGAGCACAACAGAACGUGGCAAAGUGGCUGUGGCUAGACUGCC [U9A C15G G17A], the self-cleavage came to 0.03. Regarding GGCAGAGCUCAACACAGCGAGGCAAAGUCGCUGUGGCUCGACUGCC [U20A G29C A39C], the self-cleavage worked out at 0.07. With GGCAGAGCGCAACAAAGCGUUGCAAUGUGGCUGUGGCUAGACUGCC [U9G C15A G21U A26U] the figure was 0.08.

On to GGCAGAGCUGAACAUAGAGUGGCAAAGUGCCUGUGGCUUGACUGCC [C10G C15U C18A G30C A39U], for which the self-cleavage was 0.03.

As to GGCAGAGCUCAACACAGCGUGGCAUAGUGACGGUGGCUAGACUGCC [A25U G30A U32G], the self-cleavage stood at 0.08.

On to GGCAUAGCUCAACACAGUGUGGCAAAGUGGCUGUGGCUAGACUUCC [G5U C18U G44U], for which the self-cleavage was 0.02. On to UGCAGAGCUCAAUACAGCGUGGCAACGUGGCUGUUGCUAGACUGCC [G1U C13U A26C G35U], for which the self-cleavage amounted to 0.13.

Regarding GGCAGAGCUCACCAGAGCGUGGCAAAGUGACUGUGCCUAGACAGCC [A12C C15G G30A G36C U43A], the self-cleavage was 0.

With GGCAUGGCUCAAGACAGCGUGGCAAAGUGGCCGCGGCUAGACUGCC [G5U A6G C13G U32C U34C], the self-cleavage was 0.21.

For CGCAGAGCUCAACACAGCGUGACAAAGUGGCUGUGACUAGAUUGCC [G1C G22A G36A C42U], the self-cleavage is 0.03. In the case of GGCAGAGCUCAACAUAGCGUGCCAAAGUGGCUGUGGCUAGACUGAC [C15U G22C C45A], the self-cleavage turned out to be 0.08. On to GGCAGAGCUCACCACAGCGUGGUAAAGUGGCUGUAGCUAGACUUCC [A12C C23U G35A G44U], for which the self-cleavage is 0.

As to GGAGGAGCUCAACACAGCGUGGCAUAUUGGCUGUGGCUAGACUGCC [C3A A4G A25U G27U], the self-cleavage turned out to be 0.04. On to GGCACAGCUCAACACAGCGUGGCAAAUUGGCUGUGGCCAGACUGCC [G5C G27U U38C], for which the self-cleavage worked out at 0.05.

With GGCAGAGCUCAACCCAGAGUGGCAAAGUGGCUGUGGCUAGACUUCC [A14C C18A G44U], the self-cleavage worked out at 0.02. In the case of GGCAGAGCUCCACACAGCGUGGCAAUGUGGCUGUGGCUAGACUGUC [A11C A26U C45U], the self-cleavage stood at 0.04. For GGCAGAGCUCAACACAGCCGGGCAAAGUGGCUGUGGCUCGACUGCG [G19C U20G A39C C46G], the self-cleavage was found to be 0. In the case of GGGAGAGCUCAACACAGCGUGGCAAACUGGCUUUGGCUAGACUGCC [C3G G27C G33U], the self-cleavage was 0.15. With GGCAGAGCUCAACAUAGGGUUGCAAAGUGGCUGUGGCUAGACUGCC [C15U C18G G21U], the self-cleavage is 0.03.

For the variant GGCAGAGCCCAACAUAGCGUGGCAAAGUGGCUGUUGCUAGACUGCC [U9C C15U G35U], the self-cleavage amounted to 0.01. With GGUAGAGCUCAACACAGCGUGGCAAAGUGGUUGUGGCUAGACUGCA [C3U C31U C46A], the self-cleavage is 0. With GCCGGAGCUCAACACAGCGUGUCAAAGUGGCUGUGGCUAGACUGCC [G2C A4G G22U] the figure was 0.54; with GGCAGAGCUCAACACAGCGUUGCAAAGUGGCUCUGGCUAGACUGAU [G21U G33C C45A C46U], 0.05.

With GACAGAACACAACACAGCGUGGCAAACUCGCCGUGGCUAGACUGCC [G2A G7A U9A G27C G29C U32C], the self-cleavage came out at 0.31. For GGCAUAGGUCAACACAGCGUGGCAAAGUGGCGGUUGCUAGACUGCC [G5U C8G U32G G35U], the self-cleavage stood at 0.14.

As for GGCAUAGCUCAACACAGCGUGGCAAACUGGCGGUGGCUAGACUGCC [G5U G27C U32G], the self-cleavage turned out to be 0.02. As for GGCAGAGCUCAACACAUUGUGGAGAAGUGGCUGUGGCUAAACUGCC [G17U C18U C23A A24G G40A], the self-cleavage is 0.04.

In the case of GGCAGAGCUCAACACAGCGUAGCAAAGUGGCUCUGGCUUGACUGCU [G21A G33C A39U C46U], the self-cleavage was 0.05.
